From the supplement of paper PMC11417369 come the findings set out here.

± gives the standard deviation of the averaged measurements. The list shows a part of the results.

For the experiment, the system named is PfAP2-LT AP2 domain (GST-tagged). Description: gcPBM binding intensity (ln(normalized median fluorescence intensity)); higher = stronger DNA binding. The method, boiled down:
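Plasmodium falciparum DNA-binding domains carrying a GST tag were expressed in E. coli and applied for 1 h, at about 25 μg on average, to an Agilent 4 × 180k array. The array held primer-extended double-stranded 36-bp intergenic genomic probes together with negative controls, and binding took place in 1× PBS with 1% milk, 0.2 mg/ml BSA, 0.5% salmon testes DNA and 0.03% Triton X-100. An Alexa488 anti-GST antibody detected bound protein, and the array was scanned at 488 nm. Binding intensity is taken as the highest Masliner-normalised natural-log median intensity across replicate spots of either probe orientation.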
Regarding “TGTATATGGTTTGTGCAAAAATTTATTAATGTGTAA [TGCATGCA_negctrl_site374]”, the “gcPBM binding intensity (ln)” value came to 8.74 ± 0.51.
As to “TACAAATGCGTATGTCAATATATGGAGAAATAAATA [TGCATGCA_negctrl_site290]”, the “gcPBM binding intensity (ln)” value was determined as 8.74 ± 0.44.
“ATTTGTATATACATATGTACACATGTAGGCTCATAA [XGTACX_site1709]”: the “gcPBM binding intensity (ln)” value was found to be 9.05 ± 0.38.
Then “TTTCGTAAACTTTATGCACACACATATACATATTTC [CACACA_site8146]”, with 9.41 ± 0.31; and “TATTTTTTGAAAAGTTCACACATCCAACTCGAGTTG [CACACA_site4412]”, with 8.87 ± 0.39; and “AAAAAAAAAAAAAATACACACATATTTTATAGGGGA [CACACA_site3261]”, with 8.98 ± 0.49.
The figure for “AAAATAATGAAATGAAAAAAAAAAATTTAGATTCTA [CACACA_negctrl_site1385]” is 8.33 ± 0.61; for “TTATATATTTTTAGGTGTACTTTTTTTTTTTTTTTT [XGTACX_site8164]” it is 8.6 ± 0.59; for “GTCATATATTTATGTACACACATATATATATTTATA [CACACA_site4911]” it is 9.04 ± 0.28.
Then “AAAAAACAAATAAGTAAACACACATATATAATATAT [CACACA_site8830]”, with 9.07 ± 0.43; and “CTAATTGTTATTTTGTGTACTTATCATTCGAAATAT [XGTACX_site7963]”, with 8.86 ± 0.43; and “TAGATGTAAGTACATACACACATATATAAATAAATA [CACACA_site8528]”, with 9.19 ± 0.45.
For “ATATATATTTTAATTACACACAAAAAAAAAAAAAAA [CACACA_site4778]”, the “gcPBM binding intensity (ln)” value is 8.57 ± 0.47.
For “ATATATATTTTATATTGTACTTATTATTTTTAGGGC [XGTACX_site723]”, the “gcPBM binding intensity (ln)” value turned out to be 8.69 ± 0.44.
Then “AGGATATATATATTCACACACACATGGAAATATATA [CACACA_site383]”, with 9.46 ± 0.28.
The figure for “TATGAATATCTATACACACACATATAAATACACGCT [CACACA_site6853]” is 9.46 ± 0.26.
The figure for “ATTATAATATATATATGTACATATATATATAATACT [XGTACX_site5092]” is 8.77 ± 0.33.
For the sequence “GTATAATTGGAAATTACACACCTTAGAATGTAACAT [CACACA_site4059]”, the “gcPBM binding intensity (ln)” value came out at 8.85 ± 0.37.
The figure for “ATATATAATATTGGTGGTACAAGGGTATTTTATATT [XGTACX_site8215]” is 8.85 ± 0.36.
The figure for “TATAATATACTATGTGGTACATATATATATTTATAG [XGTACX_site4556]” is 8.72 ± 0.46.
Regarding “TCATTTATTTTTCTTTGTACACAAAAGTTTTTATGT [XGTACX_site690]”, the “gcPBM binding intensity (ln)” value was found to be 8.92 ± 0.41.
The figure for “CATATGTTATATGTAGTGCATTACTATAGGATTTAT [GTGCAC_site9860]” is 8.77 ± 0.4; for “TATTTTGCAAAATGTGCATGTTGTGTATTATGTGAC [TGCATGCA_site59]” it is 9.02 ± 0.33; for TGGTATGCAATATTGGTGCGTATATATTTTAAAGGG it is 8.8 ± 0.45.
“TATTTTTAATTTTTTAATGGTTTAATATTTTTATAT [CACACA_negctrl_site1186]”: the “gcPBM binding intensity (ln)” value came to 8.41 ± 0.47.
Take “TATTCTAAGATAAGTGGTACTTATATATAATATATA [XGTACX_site8316]”: the “gcPBM binding intensity (ln)” value was determined as 8.46 ± 0.43.
The figure for “TCTTTAGCTTCTTCTTTTTTTTTTTTTTTTTTTTTT [XGTACX_negctrl_site518]” is 8.43 ± 0.65; for “ATATATATATATATATGTACATAAACATATATATAT [XGTACX_site1064]” it is 9.22 ± 0.2.
Then “AACGAAAACACTACGTGTACCAAACGTCCTACCAAC [XGTACX_site257]”, with 9.07 ± 0.42; and “TAATTAAGAATATATAGTACATAGTTGAAAAACTTT [XGTACX_site6359]”, with 8.55 ± 0.52.
With “AAGATAAAAATATGCACACATATATATATATATATA [CACACA_site404]”, the “gcPBM binding intensity (ln)” value was determined as 10.1 ± 0.17.
The figure for “AATAGTTAAATACATACATGCATTCATATAATATAT [TGCATGCA_site433]” is 8.79 ± 0.4; for “AATGTACGCATATACACACACATAAATAGATACGTA [CACACA_site3406]” it is 9.55 ± 0.38; for “TTTTTTTTTTTTTTTTTTTTACGATATATTTTAAAA [XGTACX_negctrl_site401]” it is 8.22 ± 0.25.
On to “TAGATCATAACAATTGCACACATTTGCATTTATATT [CACACA_site1562]”, for which the “gcPBM binding intensity (ln)” value was 9.11 ± 0.4.
Then “TTTTTACTTATTTATTATGTACAATTTCTTCTTTCT [CACACA_negctrl_site264]”, with 8.82 ± 0.52.
The figure for “TTCAAAAAATATATCTGTACAAATTATGTAGATGAA [XGTACX_site5522]” is 8.62 ± 0.41; for “AGTATTTTGTTTATCACACATATTGGAATTTTCAAT [CACACA_site4686]” it is 8.95 ± 0.3; for “AAAATAATTCAATGTAGTACAATACAAATTGAGAGA [XGTACX_site5991]” it is 8.82 ± 0.39.
The figure for “AAAATTATACACACACGTACATATAAATAGAAATAT [XGTACX_site1753]” is 9.48 ± 0.38.
Regarding “TTTGTTGGTATGGTTACACACATTTAGGAAATAAAA [CACACA_site1411]”, the “gcPBM binding intensity (ln)” value came to 8.63 ± 0.41.
Turning to “TCTTATAAATTAAATATAAAAAAAAAAAAAAAAAAA [XGTACX_negctrl_site77]”, the “gcPBM binding intensity (ln)” value came out at 7.96 ± 0.45.
Then “TTTTTATAACAGCTTAGTACATATAAGAATTCTTGC [XGTACX_site5890]”, with 8.64 ± 0.33.
For “GACCCCATATACATATGTACATACATAATATATATA [XGTACX_site1817]”, the “gcPBM binding intensity (ln)” value stood at 9.04 ± 0.43.
For “GGTGTTTTTCACAGATGTACACAAATAAAAAAGAAA [XGTACX_site4454]”, the “gcPBM binding intensity (ln)” value was determined as 8.71 ± 0.54.
Then “TATATATAAAAAAAAAGTACATATAATATAATATTT [XGTACX_site7902]”, with 8.51 ± 0.49; and “AAATGGACAGTATAAAAATGGAGAATATAAAAATTT [CACACA_negctrl_site889]”, with 8.87 ± 0.61; and “AAAAAAAAAAAAAATAAATAAATAAATAAATATATA [GTGCAC_negctrl_site382]”, with 8.44 ± 0.54.
Then “CCTTTTTATTTTTGTAGTACTACATATACATATCTG [XGTACX_site7791]”, with 9.03 ± 0.44; and “ATATTAAAAAAATATAAACACACAAAAAAAAAATAT [CACACA_site8283]”, with 8.95 ± 0.5; and “TATTCAAAGAAAAACTGTACGTGTAGCAAACGTCAT [XGTACX_site7713]”, with 8.65 ± 0.34.
Then TCGAATATCTTATAGGTGCATCATAAATACATATGT, with 8.86 ± 0.42.
For the sequence “TAATTCTTTATTTTTCGTACGTAAAACAAAAAATAT [XGTACX_site862]”, the “gcPBM binding intensity (ln)” value is 8.29 ± 0.54.
The figure for “AATGTAAAGAACAAAACATGCAACTAGTTTACTTTT [TGCATGCA_site841]” is 8.9 ± 0.38; for “TAAGTATATAAAATTACACACTATTTTTTTTCAAGT [CACACA_site1792]” it is 8.68 ± 0.51; for “TAGAAAAAAGATAGCACACACGGCCCAATATATATA [CACACA_site5354]” it is 9.35 ± 0.43.
The figure for “ATGCAATAATAATGGAGTACATATTAATATTGATCA [XGTACX_site2312]” is 8.89 ± 0.4; for “CCTTTTGGATGAAAGTGTACAGGTGAGAAAAATTCC [XGTACX_site3358]” it is 8.71 ± 0.47; for “AAAAAATATATTAAGGCACACACATACATATATATA [CACACA_site9239]” it is 9.41 ± 0.3.
Consider “AAAACAAATAGACACGCACACAAAAAAAAAAAAAAA [CACACA_site801]”, for which the “gcPBM binding intensity (ln)” value turned out to be 9.38 ± 0.6.
Then “TTAATTTCGAATTATTGTACATTAATATATCTACAG [XGTACX_site3314]”, with 8.52 ± 0.47.
Take “GAATAAAAAAAAAAAAAAATTTATTTTATAATAAAA [CACACA_negctrl_site1514]”: the “gcPBM binding intensity (ln)” value was 7.95 ± 0.59.
On to “ATATATATATATATATGTACATAAATATAAATTTAA [XGTACX_site8715]”, for which the “gcPBM binding intensity (ln)” value amounted to 8.92 ± 0.38.
The figure for “ATATTTATTTATATCATACACACTAATATGTATATT [CACACA_site7576]” is 8.9 ± 0.42.
Then “TTTTAAAACAATGAGATTCCTTTCTTTTTTTCTTTT [CACACA_negctrl_site1320]”, with 8.18 ± 0.56; and “TATCCCTTAGAATACACACCCATATGAGGGTGAACT [CACACA_site5610]”, with 8.77 ± 0.3; and “CTTAATGATAAATACATACACACAAAAAATAATATA [CACACA_site2577]”, with 8.96 ± 0.45.
With AGTAGATTTTTATTAGTGCATTTTATACTACAAAAA, the “gcPBM binding intensity (ln)” value stood at 8.38 ± 0.45.
As to “TATATGTTTAATTTCACACACAAATATACATTTTAA [CACACA_site4171]”, the “gcPBM binding intensity (ln)” value stood at 8.82 ± 0.49.
The figure for “AAGAAAATGTAGAATTAGAAATAAATGAAGAAATGA [TGCATGCA_negctrl_site548]” is 8.78 ± 0.44.
The figure for “CATTAGCATTTTATTACACACAATAAATTAGAAGTA [CACACA_site7837]” is 8.7 ± 0.45; for “ATTCTTAAATGTGGTTGTACATATTATCACCTTTAA [XGTACX_site8188]” it is 8.75 ± 0.42.
Then “TTTTTAATTTTATATACACACATAAAAGATATGAAG [CACACA_site7470]”, with 8.5 ± 0.4; and “ATATTCTCTTAAATATGTACGTATGTATATATATAT [XGTACX_site5885]”, with 8.86 ± 0.4; and “CGCAAAACAATGATACGTACATATATATATATATAT [XGTACX_site5883]”, with 9.88 ± 0.071.
Regarding “ACTTAGGAAATAAAACGTACATTAAATATATACATA [XGTACX_site2990]”, the “gcPBM binding intensity (ln)” value stood at 8.71 ± 0.46.
Then “TTTTATTTATTATTATGTACACACTATATTAAAACA [XGTACX_site1265]”, with 8.75 ± 0.37.
The figure for “TGAATAATCAATAGTACACACATATAAATATAAATA [CACACA_site7345]” is 9.13 ± 0.42; for “GTATGTATGTATGTATGTACTTATTAATCAGTAAAA [XGTACX_site3844]” it is 8.97 ± 0.22; for “ATAAAAGATATGTATATGTATATGTATATATATATA [TGCATGCA_negctrl_site214]” it is 9.21 ± 0.25.
Then “TATAAATAAATAGATACACACATATTTATAAATACA [CACACA_site6219]”, with 8.87 ± 0.43.
As to “GCTTAAGGTAAATATAAAATATAGTGTATACTTTAG [XGTACX_negctrl_site585]”, the “gcPBM binding intensity (ln)” value was found to be 8.59 ± 0.44.
In the case of TTACGCTGCTATATAGTGCACATAATATATGACCTG, the “gcPBM binding intensity (ln)” value came to 8.86 ± 0.33.
The figure for “AAATAAAATAATAAAACATGCAAAAATAATGATTTA [TGCATGCA_site415]” is 8.79 ± 0.35; for “ATAAAGATTAACAAAGTGCATTTATATATATAATCT [GTGCAC_site9407]” it is 8.7 ± 0.4.
With “CCCAAAAAATATCATAGTACTCAACATGACTACTAT [XGTACX_site7838]”, the “gcPBM binding intensity (ln)” value stood at 8.87 ± 0.3.
Then “TTTTTGTTAACAATGGGTACAAAAAAAAGGAAAATA [XGTACX_site7466]”, with 8.54 ± 0.33; and “AATTTTGTATAGGTATCACACATGAAATATATTATT [CACACA_site5526]”, with 8.74 ± 0.4; and “GTGATGGTACAATATACACACTTAAAAAAAAAAAAT [CACACA_site5360]”, with 8.97 ± 0.49.
